Experimental data from the supplement of paper PMC3334620.
Whole data set: some 33,000 sequences, median “E-score (-0.5 to 0.5)” near -0.01, cut for the highest 2% near 0.26. The list shows a part of the results.

Target: Ste12 (UniProt P13574)
Assay: PBM E-score (8-mer binding enrichment) (E-score (-0.5 to 0.5)); higher = stronger / more preferred TF binding; most listed sequences are background and not binding sites
Settings: protein concentration: 200 nM; construct: GST-DNA-binding domain
Protocol: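 Universal 'all 10-mer' protein binding microarrays (Agilent AMADID 015681) probed with GST-tagged S. cerevisiae TFs (full-length or DBD) made by in vitro transcription/translation (PURExpress), about 100-200 nM. Bound TF was detected with fluorescent anti-GST. Each ungapped 8-mer (which stands for itself and its reverse complement) is scored by the PBM enrichment score (E-score), a modified Wilcoxon-Mann-Whitney statistic from -0.5 to +0.5, computed with the Universal PBM Analysis Suite. Scale: above 0.35 generally sequence-specific binding.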

Row | Sequence | PBM E-score
1 | ACCAAAGC | 0.0814
2 | AGGGTGGG | 0.35
3 | ACGCGTGC | 0.102
4 | AGAGCGAT | -0.219
5 | ATCTCAGG | 0.088
6 | AGCCAACA | 0.0636
7 | AGCGATAC | 0.0969
8 | CAGATAGG | -0.0192
9 | CAGAAAAG | 0.186
10 | AAATCTCC | -0.168
11 | AAGTCGAT | -0.0447
12 | CTGAATAC | 0.158
13 | TCATGCAA | 0.0709
14 | AGCCCCAA | -0.216
15 | CCACACTA | 0.145
16 | CCTATGTC | -0.0854
17 | AATCCAGC | -0.221
18 | GATACCCC | -0.118
19 | ACTCATCT | -0.085
20 | CTGGAGAA | -0.134
21 | CAATTCGG | 0.103
22 | CCCCCTAG | -0.318
23 | ACGCGCAG | -0.138
24 | GAAATCGC | 0.0144
25 | AACTGTTC | 0.0188

Row | Sequence | PBM E-score
26 | AAGGGGAT | 0.144
27 | ATATTCGC | 0.145
28 | GTCCGAGA | 0.0473
29 | CACATCGA | -0.125
30 | CAAAGTTG | -0.104
31 | AAGAACAT | 0.0441
32 | GGCCAAAC | -0.066
33 | CATTGGCA | -0.0155
34 | AGTCTTGG | -0.0521
35 | CGGCTAGC | -0.122
36 | TCCCCGCA | 0.187
37 | AACTCACT | -0.0984
38 | ACACAACT | 0.161
39 | AGCATTGA | -0.0755
40 | AGGGAGCA | -0.292
41 | TTCGTAAA | 0.143
42 | AGCTCATA | 0.0357
43 | GCCTAGCC | -0.117
44 | CGTGACCA | -0.014
45 | CTGTAGGA | -0.0813
46 | AAGAGGCG | -0.126
47 | AGAGCCAC | 0.0432
48 | AAGCACTT | -0.0574
49 | GCCCGTGA | -0.0628
50 | CGGTAACA | 0.193

Row | Sequence | PBM E-score
51 | CCTAGATA | -0.208
52 | GCGAGCCC | -0.137
53 | AATAGTCG | 0.0368
54 | AAGCGGTG | -0.238
55 | CAAATAAA | 0.1
56 | GTGCGGGA | -0.12
57 | ACGCGCCT | 0.046
58 | GTGGACTA | -0.0385
59 | GGCAGGCA | -0.204
60 | CCTCAAGC | -0.0822
61 | AAAACGTT | 0.257
62 | ACCGGATA | -0.0813
63 | CAATAGTC | -0.0383
64 | CCCATGAC | -0.0141
65 | AAGGTATT | 0.0751
66 | CCGCACGA | -0.124
67 | ATAGCACG | -0.118
68 | CTAATGAG | 0.137
69 | ATGTTACC | 0.175
70 | GTGATCAA | -0.0907
71 | AGTGCGCG | -0.0282
72 | GGTGCACA | -0.142
73 | ATCGAAAG | 0.0602
74 | AAACATTT | 0.249
75 | AAGACAGA | 0.174

Row | Sequence | PBM E-score
76 | TATATAGA | 0.207
77 | AGGTGCGG | -0.115
78 | GTTCGAAC | 0.0685
79 | CTTAAGGA | -0.182
80 | ATGCTCTC | -0.0854
81 | ACGTGGCG | -0.147
82 | ACCTCGCT | -0.0107
83 | ATACCCGC | 0.13
84 | CTACGGGA | -0.222
85 | AGTCGAAG | 0.0668
86 | AATAACAG | 0.164
87 | CAACAGGA | -0.173
88 | ACCGCACT | 0.0325
89 | CCTATTTA | 0.186
90 | AGGAACCC | -0.194
91 | CATGAACA | -0.0149
92 | AATTCTCC | 0.258
93 | CCCTGGAC | -0.221
94 | GCCTATTA | 0.0234
95 | CACGACAG | -0.0897
96 | CACATATA | 0.0475
97 | TGAAGTCA | -0.0207
98 | CATTGATA | 0.152
99 | GCCACCCC | -0.0121
100 | ACAGACGT | 0.0256

Row | Sequence | PBM E-score
101 | AATGGTTG | -0.0565
102 | AGCCCGTC | -0.216
103 | AAAACGAA | 0.237
104 | CGGATGCC | -0.0882
105 | AATATTGG | 0.017
106 | GATAGAGA | -0.0768
107 | ACCGGAAT | 0.084
108 | CAAATGAG | -0.00681
109 | GAACGGAA | 0.0637
110 | AGGCCGCG | -0.0686
111 | CAAACTCG | 0.0594
112 | AGTATGAG | 0.11
113 | CGTTAGAC | -0.127
114 | ATTCGCAC | 0.0371
115 | CGCAAGGA | -0.148
116 | GGGCTATA | -0.141
117 | ACACCCGT | -0.161
118 | GTCCGAAA | 0.211
119 | AGTGTGTC | -0.00349
120 | GCATGATA | 0.0794
121 | CCAGTCAG | 0.00591
122 | CGAACAAG | 0.001
123 | ATTAGAGA | 0.0346
124 | ACGACAAT | -0.0369
125 | AAGGTGGT | -0.0871

Row | Sequence | PBM E-score
126 | ACCACTAA | 0.0361
127 | CCCGTTGC | -0.145
128 | GCTGCGAC | 0.024
129 | GCAAGTTA | 0.0572
130 | GCGGCACC | 0.00611
131 | CGCTCTTA | 0.0352
132 | CTGACCCA | -0.105
133 | CAACGTAG | -0.255
134 | ATACGACG | 0.0539
135 | GCAGACGA | 0.0114
136 | CCGTTAGA | 0.0305
137 | TGTGCACA | -0.327
138 | ATATTCCG | 0.0659
139 | AAGTTAGC | -0.0335
140 | CATAGTGC | -0.0329
141 | GGTTTGAA | 0.297
142 | CGCGGAGC | -0.0792
143 | ACTCCTCT | -0.0879
144 | ACTGATAA | 0.2
145 | CTATTCTC | 0.0163
146 | CTGGGCAC | -0.0199
147 | CATACTAA | 0.147
148 | TAGAGATA | -0.0229
149 | CCGACGTC | -0.112
150 | CCTAGCCA | -0.166

Row | Sequence | PBM E-score
151 | ATATGGGA | 0.173
152 | AAGAGAAC | 0.0833
153 | AGGAGGGG | 0.285
154 | AACTCGCA | 0.00437
155 | GCACATTA | -0.0503
156 | AAATTGAA | 0.185
157 | CTCACGAA | -0.114
158 | GACAGCAC | -0.014
159 | GACAGAAA | 0.168
160 | AGCGGGTC | -0.133
161 | CAAAGAAG | 0.112
162 | CCATGGAG | -0.182
163 | AAGAACAG | 0.0799
164 | AGTTGTAC | 0.0416
165 | CGAGAGTC | -0.246
166 | CGCAGCAG | -0.102
167 | GTGCCGAA | -0.0314
168 | AGGCAGGA | -0.219
169 | CGGCTTAC | 0.139
170 | AAGGAAAT | 0.0925
171 | ATCTGTCC | -0.135
172 | AAAGTATG | 0.141
173 | ACGTGGTA | -0.0589
174 | CAAAAAAG | 0.159
175 | CTCGCAAC | 0.00396

Row | Sequence | PBM E-score
176 | GCCTACGC | -0.157
177 | AATAATAG | 0.0434
178 | CATCGCGC | 0.0539
179 | GATACCAA | 0.16
180 | CTTGACGA | -0.0679
181 | ACATTGCC | -0.107
182 | CGGGAGAG | -0.208
183 | TCGTTTCA | 0.467
184 | CGAGTCGA | 0.0672
185 | GCCTAGAC | -0.14
186 | CAGTATAA | 0.222
187 | AAACAGTC | -0.038
188 | AGCGAATC | -0.0395
189 | GATACTCC | -0.143
190 | ATGTAGGG | -0.119
191 | ACACTTAA | 0.127
192 | AACCCCGT | 0.122
193 | ACTGGATA | 0.0614
194 | CTTGCTAC | -0.0644
195 | ACGTGGTC | -0.14
196 | AGTTAATG | 0.19
197 | TCTGCTAA | -0.0489
198 | ATTAATCC | 0.0655
199 | CCCACGCA | -0.0214
200 | TACAATGA | 0.172

Row | Sequence | PBM E-score
201 | GGTGAGGA | -0.00014
202 | CTAAATAA | 0.0819
203 | CCGCGACA | 0.125
204 | ATTACCCC | 0.0911
205 | GCAATCAA | 0.0398
206 | TAGCAAGA | 0.0303
207 | ATTTGGAC | 0.0307
208 | GCTACTAC | 0.0413
209 | CGGTCATA | 0.057
210 | AAGCACGT | -0.0189
211 | CTATTCCA | 0.0935
212 | TCGGACGA | -0.0726
213 | ACTAAAAT | 0.27
214 | AGCAACTG | -0.149
215 | AACTCGTG | 0.144
216 | AAACTGTT | 0.162
217 | AACATTCT | -0.0595
218 | CTGGACAC | -0.21
219 | CAGAAGAA | -0.0592
